{"source": "the supplement of paper PMC10126150", "note": "Sequences with one replicate were seen in a single cluster, so their values are uncertain.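 Further: ATP exposure 15 min at 22 °C before imaging.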"}
{"tested_on": "ATP", "test": "switch fluorescence ratio, 500 uM ATP over buffer (Cy3 cluster intensity, sum of 5 cycles each) (fold (ratio)); higher = stronger signal-on switching upon ATP binding; sequences stand for … in TCGTCGGCAGCGTCAGATGTGTATAAGAGACAGTTTTTTTTTTTTTTTTTTTTTTTTT…TC", "conditions": "aptamer strand: ATP DNA aptamer (quencher-CACCTGGGGGAGTATTGCGGAGGAAGG + anchor), 100 nM annealed; ATP concentration: 500 uM; one replicate", "outline": "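For every switch-domain sequence, the fluorescence ratio is the mean of per-cluster values, each being summed target-cycle Cy3 intensity over summed buffer-cycle Cy3 intensity. Clusters outside 100-1000 RFU were excluded. On a modified Illumina MiSeq flow-cell, the Cy3-labelled switching-strand clusters were annealed to 100 nM quencher-labelled ATP aptamer, imaged in selection buffer and then after 15 min with 500 uM ATP at 22 °C. Five such cycles were run, with NaOH stripping and re-annealing between them.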"}
{"sequence": "GCCTGCCGGA", "switch fluorescence ratio": 1.08}
{"sequence": "GCCTGGGCTA", "switch fluorescence ratio": 1.02}
{"sequence": "GCCTGGGTGC", "switch fluorescence ratio": 1.49}
{"sequence": "GCCTTAAGAG", "switch fluorescence ratio": 1.01}
{"sequence": "GCCTTTGGGA", "switch fluorescence ratio": 1.03}
{"sequence": "GCGAAATAA", "switch fluorescence ratio": 1.05}
{"sequence": "GCGAACGGCG", "switch fluorescence ratio": 0.953}
{"sequence": "GCGAAGGACA", "switch fluorescence ratio": 1}
{"sequence": "GCGAATAGCC", "switch fluorescence ratio": 1.08}
{"sequence": "GCGAATATAT", "switch fluorescence ratio": 1.03}
{"sequence": "GCGAATGTGT", "switch fluorescence ratio": 0.994}
{"sequence": "GCGAATTTTA", "switch fluorescence ratio": 1.03}
{"sequence": "GCGACAAGTT", "switch fluorescence ratio": 1.08}
{"sequence": "GCGACAGGGA", "switch fluorescence ratio": 1.04}
{"sequence": "GCGACCAAAT", "switch fluorescence ratio": 1.05}
{"sequence": "GCGACCCGTC", "switch fluorescence ratio": 1.01}
{"sequence": "GCGACGCTTA", "switch fluorescence ratio": 2.5}
{"sequence": "GCGACGTATT", "switch fluorescence ratio": 1.13}
{"sequence": "GCGACTCAGG", "switch fluorescence ratio": 1.17}
{"sequence": "GCGACTGCTG", "switch fluorescence ratio": 0.961}
{"sequence": "GCGAGAACAG", "switch fluorescence ratio": 1.06}
{"sequence": "GCGAGATCCA", "switch fluorescence ratio": 1.02}
{"sequence": "GCGAGCGAT", "switch fluorescence ratio": 1.07}
{"sequence": "GCGAGGTGGC", "switch fluorescence ratio": 1.02}
{"sequence": "GCGAGTATGG", "switch fluorescence ratio": 1.02}
{"sequence": "GCGATAATCA", "switch fluorescence ratio": 1.16}
{"sequence": "GCGATATGGG", "switch fluorescence ratio": 1.06}
{"sequence": "GCGATCCACC", "switch fluorescence ratio": 1.11}
{"sequence": "GCGATCCATT", "switch fluorescence ratio": 0.982}
{"sequence": "GCGATCTTTG", "switch fluorescence ratio": 1.03}
{"sequence": "GCGATTGTTG", "switch fluorescence ratio": 0.992}
{"sequence": "GCGCAAGG", "switch fluorescence ratio": 1.09}
{"sequence": "GCGCAATGTA", "switch fluorescence ratio": 1.31}
{"sequence": "GCGCACGTCA", "switch fluorescence ratio": 1.06}
{"sequence": "GCGCAGCCTA", "switch fluorescence ratio": 1}
{"sequence": "GCGCAGTTGG", "switch fluorescence ratio": 1.03}
{"sequence": "GCGCCAAGCC", "switch fluorescence ratio": 0.99}
{"sequence": "GCGCCGAGGC", "switch fluorescence ratio": 1.04}
{"sequence": "GCGCCTCCAA", "switch fluorescence ratio": 1.34}
{"sequence": "GCGCCTTGGC", "switch fluorescence ratio": 0.967}
{"sequence": "GCGCGACGT", "switch fluorescence ratio": 1.01}
{"sequence": "GCGCGCATTA", "switch fluorescence ratio": 0.996}
{"sequence": "GCGCGCCCGT", "switch fluorescence ratio": 0.981}
{"sequence": "GCGCGGGCTT", "switch fluorescence ratio": 0.975}
{"sequence": "GCGCGTTTTC", "switch fluorescence ratio": 1.04}
{"sequence": "GCGCTAGCGT", "switch fluorescence ratio": 0.965}
{"sequence": "GCGCTGCAGG", "switch fluorescence ratio": 0.977}
{"sequence": "GCGCTGCCA", "switch fluorescence ratio": 1.05}
{"sequence": "GCGCTGTATC", "switch fluorescence ratio": 1.03}
{"sequence": "GCGGAAACCG", "switch fluorescence ratio": 1.05}
{"sequence": "GCGGAAGCAA", "switch fluorescence ratio": 1.12}
{"sequence": "GCGGAATCTG", "switch fluorescence ratio": 1.03}
{"sequence": "GCGGACTACG", "switch fluorescence ratio": 0.996}
{"sequence": "GCGGAGAAGG", "switch fluorescence ratio": 1.05}
{"sequence": "GCGGAGGATA", "switch fluorescence ratio": 1.03}
{"sequence": "GCGGATCGCA", "switch fluorescence ratio": 1.01}
{"sequence": "GCGGATCTGG", "switch fluorescence ratio": 1.05}
{"sequence": "GCGGCAGGCA", "switch fluorescence ratio": 0.963}
{"sequence": "GCGGCCTCTC", "switch fluorescence ratio": 1.06}
{"sequence": "GCGGCGGAAA", "switch fluorescence ratio": 1.02}
{"sequence": "GCGGCTATAG", "switch fluorescence ratio": 1.02}
{"sequence": "GCGGCTGTAC", "switch fluorescence ratio": 2.44}
{"sequence": "GCGGGAACCT", "switch fluorescence ratio": 1.5}
{"sequence": "GCGGGACCC", "switch fluorescence ratio": 0.964}
{"sequence": "GCGGGCCATA", "switch fluorescence ratio": 1.03}
{"sequence": "GCGGGCGTAG", "switch fluorescence ratio": 1.04}
{"sequence": "GCGGGCTAAA", "switch fluorescence ratio": 0.996}
{"sequence": "GCGGGCTGGG", "switch fluorescence ratio": 1.01}
{"sequence": "GCGGGCTTCG", "switch fluorescence ratio": 1}
{"sequence": "GCGGGGAGG", "switch fluorescence ratio": 0.985}
{"sequence": "GCGGGGCGGC", "switch fluorescence ratio": 1}
{"sequence": "GCGGGTAAA", "switch fluorescence ratio": 1.02}
{"sequence": "GCGGGTAACC", "switch fluorescence ratio": 0.989}
{"sequence": "GCGGGTCAGG", "switch fluorescence ratio": 0.983}
{"sequence": "GCGGGTTCAA", "switch fluorescence ratio": 0.984}
{"sequence": "GCGGTAATGT", "switch fluorescence ratio": 0.955}
{"sequence": "GCGGTATCTT", "switch fluorescence ratio": 1}
{"sequence": "GCGGTCACTA", "switch fluorescence ratio": 1.03}
{"sequence": "GCGGTCCCGT", "switch fluorescence ratio": 0.994}
{"sequence": "GCGGTGTCGT", "switch fluorescence ratio": 0.992}
{"sequence": "GCGGTGTTAT", "switch fluorescence ratio": 1.11}
{"sequence": "GCGGTTACTT", "switch fluorescence ratio": 0.993}
{"sequence": "GCGGTTGCGA", "switch fluorescence ratio": 0.976}
{"sequence": "GCGGTTGTCA", "switch fluorescence ratio": 0.961}
{"sequence": "GCGTAAACTT", "switch fluorescence ratio": 1.03}
{"sequence": "GCGTAAGCGT", "switch fluorescence ratio": 1.02}
{"sequence": "GCGTAAGG", "switch fluorescence ratio": 1}
{"sequence": "GCGTACCTTT", "switch fluorescence ratio": 0.969}
{"sequence": "GCGTAGGTCA", "switch fluorescence ratio": 1}
{"sequence": "GCGTATGTGG", "switch fluorescence ratio": 1.01}
{"sequence": "GCGTCAGGAA", "switch fluorescence ratio": 1}
{"sequence": "GCGTCATCGC", "switch fluorescence ratio": 1.02}
{"sequence": "GCGTCCGGTA", "switch fluorescence ratio": 1.06}
{"sequence": "GCGTCTGGCT", "switch fluorescence ratio": 0.986}
{"sequence": "GCGTGGGGAC", "switch fluorescence ratio": 1.02}
{"sequence": "GCGTGGTCCA", "switch fluorescence ratio": 1.01}
{"sequence": "GCGTGGTTTG", "switch fluorescence ratio": 0.928}
{"sequence": "GCGTGTTACC", "switch fluorescence ratio": 1.02}
{"sequence": "GCGTGTTTCG", "switch fluorescence ratio": 0.958}
{"sequence": "GCGTTAGACA", "switch fluorescence ratio": 1.07}
